# ± gives the uncertainty stated by the source. The sequences are guide strands of siRNAs; only the seed at positions 2 to 7 varies.
# What was measured:
# 3LL = test: cell viability relative to siNT1 control; higher = less toxic; conditions: concentration: 10 nM; 96 h; Mus musculus;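 also: Luminescence-based viability of cells reverse transfected in 384-well plates with lipid-complexed siRNAs built on a non-toxic 19mer backbone whose passenger strand carries 2′-O-methyl groups at positions 1 and 2, triplicates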
# H460 = test: cell viability relative to lipid-only control; HeyA8 human ovarian and H460 human lung cancer; M565 mouse liver and 3LL mouse lung cancer; siNT1 is a non-toxic control siRNA; higher = less toxic; conditions: concentration: 10 nM; 96 h; Homo sapiens
# HeyA8 = test: as above; conditions: concentration: 10 nM; 96 h; Homo sapiens
# M565 = test: as above; conditions: concentration: 10 nM; 96 h; Mus musculus
# 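For cell viability relative to lipid-only control in this document: reverse lipid transfection in 384-well plates, in triplicate, of duplexes on a non-toxic 19mer backbone with passenger strand 2′-O-methylated at positions 1 and 2, luminescence viability read-out.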
Sequence,cell viability (3LL),cell viability (H460),cell viability (HeyA8),cell viability (M565)
UUACACGACAUGUAAACCAAA,22.3 ± 0.66%,65.3 ± 7.9%,97.6 ± 4.1%,74.5 ± 7.1%
UGCCAUGACAUGUAAACCAAA,93.2 ± 13%,52.3 ± 5.3%,67.6 ± 7%,39.6 ± 6.3%
UCUCGAGACAUGUAAACCAAA,97.7 ± 18%,52.2 ± 1.3%,92.3 ± 9%,67.6 ± 13%
UGCACCGACAUGUAAACCAAA,71.5 ± 9.1%,69.5 ± 12%,62.1 ± 5.4%,54.6 ± 5.2%
UACUACAACAUGUAAACCAAA,93.8 ± 15%,86.2 ± 17%,87.7 ± 3.9%,62.2 ± 10%
UAGCACUACAUGUAAACCAAA,26.8 ± 11%,51.7 ± 8.6%,47.3 ± 2.3%,13.4 ± 3.5%
UAUGCAAACAUGUAAACCAAA,112 ± 14%,85.7 ± 13%,99.5 ± 10%,95.8 ± 6.3%
UGACCCUACAUGUAAACCAAA,15.6 ± 3.4%,26.89 ± 0.15%,31 ± 5.7%,15.6 ± 2.1%
UUGUCAUACAUGUAAACCAAA,56 ± 7.1%,59.2 ± 2.5%,62.1 ± 2.3%,62.2 ± 11%
UAGAUGUACAUGUAAACCAAA,27.8 ± 3.9%,87.9 ± 23%,43.6 ± 2.9%,30.9 ± 3.3%
UACGUUGACAUGUAAACCAAA,94.6 ± 17%,75.4 ± 13%,80 ± 3.6%,57.1 ± 16%
UGUACGUACAUGUAAACCAAA,95.3 ± 6%,84.6 ± 9.1%,99.6 ± 5.4%,70.3 ± 6.2%
UAUAGUAACAUGUAAACCAAA,108 ± 11%,73.4 ± 10%,99.6 ± 5.6%,96.5 ± 8%
UGAUUGGACAUGUAAACCAAA,28.1 ± 6%,46.8 ± 6.8%,40.8 ± 5.4%,47.2 ± 6.3%
UACUUCCACAUGUAAACCAAA,24.1 ± 3.1%,63.2 ± 0.36%,34.5 ± 2.4%,30.4 ± 2%
UCCUGGUACAUGUAAACCAAA,61.4 ± 17%,66.8 ± 6.1%,27.3 ± 3.9%,28.8 ± 2.3%
UACUACCACAUGUAAACCAAA,39.9 ± 5%,48.7 ± 0.98%,31.4 ± 2.6%,3.76 ± 1.1%
UGCGUUUACAUGUAAACCAAA,80.7 ± 8.8%,61.4 ± 1.5%,67.3 ± 4.7%,60.9 ± 3.8%
UGACAAAACAUGUAAACCAAA,92.2 ± 16%,67.6 ± 17%,102 ± 1.9%,74.8 ± 23%
UAGUAAUACAUGUAAACCAAA,55.1 ± 6.4%,45.7 ± 4.6%,29.7 ± 2.1%,52.7 ± 0.99%

Sequence,cell viability (3LL),cell viability (H460),cell viability (HeyA8),cell viability (M565)
UAUCAAGACAUGUAAACCAAA,103 ± 5.6%,56.6 ± 9.5%,99.5 ± 5%,75.5 ± 12%
UGGAGCGACAUGUAAACCAAA,26 ± 1.7%,23.7 ± 1.1%,15 ± 1.6%,7.75 ± 2%
UGGAUCGACAUGUAAACCAAA,81.8 ± 11%,71.9 ± 8.5%,71.2 ± 9.7%,72.7 ± 13%
UUGAUGCACAUGUAAACCAAA,33.4 ± 5.2%,50.7 ± 6.2%,52.4 ± 6.3%,52.3 ± 11%
UAAUGUAACAUGUAAACCAAA,119 ± 8.1%,103 ± 12%,95.9 ± 4.7%,87.2 ± 7%
UCCAGAAACAUGUAAACCAAA,104 ± 13%,65.5 ± 8.5%,81.5 ± 3.9%,67.3 ± 15%
UAGGAAUACAUGUAAACCAAA,92.2 ± 17%,59.8 ± 12%,69.3 ± 7.7%,53.3 ± 9.7%
UAGCUGUACAUGUAAACCAAA,23 ± 6%,72.6 ± 9.7%,33.6 ± 4%,15.2 ± 2.4%
UUCUGUGACAUGUAAACCAAA,49.2 ± 11%,69.8 ± 11%,80.9 ± 6.4%,48.9 ± 13%
UCCAUGGACAUGUAAACCAAA,26.1 ± 4.1%,9.61 ± 0.65%,4.96 ± 0.25%,19.9 ± 1.7%
UAUACUGACAUGUAAACCAAA,107 ± 12%,79.8 ± 12%,104 ± 3.6%,104 ± 5.7%
UAGCAGGACAUGUAAACCAAA,57.4 ± 14%,35.4 ± 0.56%,46.8 ± 4.7%,24.9 ± 5.2%
UCUAUGCACAUGUAAACCAAA,66.8 ± 13%,40.3 ± 1.4%,43 ± 1.8%,38.1 ± 11%
UCACAGCACAUGUAAACCAAA,48.3 ± 16%,18.2 ± 1.2%,23.4 ± 2.7%,41.4 ± 3.8%
UGAUGACACAUGUAAACCAAA,54.6 ± 10%,41 ± 3.6%,30.1 ± 4.1%,44.9 ± 7.1%
UGAUGGAACAUGUAAACCAAA,72.6 ± 13%,35.2 ± 5.5%,24.9 ± 1.4%,27.2 ± 2.2%
UUGCGUCACAUGUAAACCAAA,63.5 ± 3.7%,98.9 ± 9.8%,93.5 ± 5%,46.8 ± 5.4%
UCAUAUUACAUGUAAACCAAA,93.1 ± 20%,39.3 ± 3.5%,83.1 ± 8.1%,63.1 ± 15%
UCGCGAGACAUGUAAACCAAA,101 ± 19%,93.1 ± 14%,77.2 ± 1.9%,68.3 ± 6.4%
UAGAAUCACAUGUAAACCAAA,69 ± 6.6%,76.8 ± 9.1%,55.5 ± 4.8%,42.9 ± 1.7%

Sequence,cell viability (3LL),cell viability (H460),cell viability (HeyA8),cell viability (M565)
UGUGUGGACAUGUAAACCAAA,29.5 ± 7.2%,19.9 ± 0.94%,17.6 ± 1.9%,12.8 ± 3.5%
UUGCAAGACAUGUAAACCAAA,79.5 ± 8.6%,89.9 ± 14%,97.3 ± 7.3%,84.9 ± 16%
UCCUCUUACAUGUAAACCAAA,91.7 ± 13%,51 ± 5%,82.7 ± 5.6%,65.7 ± 6.8%
UCAACUCACAUGUAAACCAAA,98.6 ± 12%,61.1 ± 6.4%,68.9 ± 6.2%,47.5 ± 11%
UCCUACCACAUGUAAACCAAA,44.7 ± 16%,45.8 ± 7%,30.8 ± 1.6%,8.9 ± 1.1%
UCACCUGACAUGUAAACCAAA,89.9 ± 17%,49.1 ± 1.5%,84 ± 4.8%,77.5 ± 4.5%
UGUGGAGACAUGUAAACCAAA,72.5 ± 4%,36.5 ± 6.4%,11.1 ± 0.46%,22.2 ± 12%
UGGACGGACAUGUAAACCAAA,53.2 ± 3.9%,26.1 ± 3.2%,40.4 ± 6%,16.3 ± 5.7%
UAUCCCUACAUGUAAACCAAA,19.3 ± 4.9%,53.1 ± 5%,82.2 ± 2.7%,64.7 ± 8.8%
UGAAGAUACAUGUAAACCAAA,67.7 ± 3.2%,30.2 ± 1.4%,1.8 ± 0.051%,9.19 ± 0.48%
UUGUCGCACAUGUAAACCAAA,24.1 ± 3.6%,62.3 ± 5%,48.1 ± 3%,41.8 ± 2.7%
UUCCCUGACAUGUAAACCAAA,103 ± 6.4%,78.7 ± 2%,79.4 ± 3.9%,102 ± 14%
UGCGGGGACAUGUAAACCAAA,13.3 ± 4.2%,17.3 ± 2.2%,3.07 ± 0.45%,22 ± 5.3%
UUGCGACACAUGUAAACCAAA,15.1 ± 11%,20.6 ± 1%,35.7 ± 2.6%,61.9 ± 10%
UUAUAUGACAUGUAAACCAAA,78.2 ± 7.6%,75.4 ± 17%,89.2 ± 5.2%,97.9 ± 21%
UAGAGGCACAUGUAAACCAAA,2.48 ± 0.27%,33.4 ± 4.9%,25.6 ± 1.2%,4.58 ± 0.54%
UGUCAGGACAUGUAAACCAAA,15.5 ± 2.3%,38 ± 2.1%,76.4 ± 7.9%,13.6 ± 2.1%
UCUUUUCACAUGUAAACCAAA,83.4 ± 15%,67.5 ± 10%,28.7 ± 3.6%,87.7 ± 13%
UUUGAGGACAUGUAAACCAAA,88.5 ± 14%,68.4 ± 4.2%,59.6 ± 3.7%,42.4 ± 2.6%
UUUCUGCACAUGUAAACCAAA,5.86 ± 1.3%,41 ± 2.5%,47.5 ± 2.1%,53.4 ± 4.5%

# Reference: the supplement of paper PMC6206098
